The campaign covered roughly 310,000 compounds. About 2,200 (0.71%) showed an effect of 50% or more. The effect is printed as a negative number. This is one part of the list.

The values that follow come from paper PMC4336329 (PLoS ONE, 2015).

The target of the experiment is human ether-à-go-go-related gene (hERG) potassium channel (human, UniProt Q12809). As to the kind of experiment: primary screen, population patch clamp on CHO cells stably expressing hERG.
human ether-à-go-go-related gene (hERG) potassium channel, sequence (Q12809 whole entry, looked up): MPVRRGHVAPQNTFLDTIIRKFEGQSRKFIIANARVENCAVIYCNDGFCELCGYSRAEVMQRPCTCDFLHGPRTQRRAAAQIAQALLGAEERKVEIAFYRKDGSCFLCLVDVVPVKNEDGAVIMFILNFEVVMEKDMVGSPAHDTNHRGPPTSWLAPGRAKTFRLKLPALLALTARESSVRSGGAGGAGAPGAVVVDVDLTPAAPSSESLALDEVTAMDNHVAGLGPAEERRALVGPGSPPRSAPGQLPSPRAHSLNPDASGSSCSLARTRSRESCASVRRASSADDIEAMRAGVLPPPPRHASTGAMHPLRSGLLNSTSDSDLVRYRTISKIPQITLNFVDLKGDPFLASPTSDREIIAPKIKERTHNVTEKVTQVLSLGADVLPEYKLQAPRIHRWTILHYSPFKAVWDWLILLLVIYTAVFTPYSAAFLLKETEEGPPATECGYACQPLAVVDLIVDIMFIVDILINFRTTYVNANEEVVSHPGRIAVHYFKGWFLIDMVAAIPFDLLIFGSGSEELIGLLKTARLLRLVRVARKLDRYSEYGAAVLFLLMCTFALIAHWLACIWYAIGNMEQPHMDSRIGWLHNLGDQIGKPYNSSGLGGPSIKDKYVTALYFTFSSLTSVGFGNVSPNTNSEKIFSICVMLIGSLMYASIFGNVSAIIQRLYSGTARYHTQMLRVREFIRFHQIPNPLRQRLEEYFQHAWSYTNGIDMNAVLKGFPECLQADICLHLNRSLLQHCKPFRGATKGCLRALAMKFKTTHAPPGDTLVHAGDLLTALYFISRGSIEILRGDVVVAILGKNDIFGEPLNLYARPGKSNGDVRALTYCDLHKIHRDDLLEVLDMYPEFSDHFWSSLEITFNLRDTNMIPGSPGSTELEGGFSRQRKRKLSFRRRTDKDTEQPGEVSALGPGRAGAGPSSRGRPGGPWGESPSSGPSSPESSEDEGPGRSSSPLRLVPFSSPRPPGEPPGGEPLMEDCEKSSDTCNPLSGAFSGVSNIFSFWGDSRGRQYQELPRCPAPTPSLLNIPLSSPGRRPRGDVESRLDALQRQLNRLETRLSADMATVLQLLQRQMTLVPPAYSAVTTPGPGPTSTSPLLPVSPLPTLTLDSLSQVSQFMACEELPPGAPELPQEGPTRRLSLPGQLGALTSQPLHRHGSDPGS
Regarding `CCOC(=O)C1CCN(c2ncnc3c2cnn3C)CC1`, the “hERG current change (%, negative = inhibition) at 1uM” value was found to be 5.8%.
The figure for `O=C(C1CC1)N1CCCC(c2ccc(Cl)cc2)=N1` is 20.2%; for `O=C1N[C@@H](Cc2cn(S(=O)(=O)c3ccc(F)cc3)c3ccccc23)C(=O)N[C@H]1Cc1ccccc1` it is 12.8%.
Next, `COc1ccc(CCNC(=O)c2cc(C(C)C)on2)cc1OC`: 13.2%.
The figure for `CCOC(=O)N1CCC(NC(=O)c2cnn3cccnc23)CC1` is -4.76%; for `CCOc1ccc(N2CC(NC(=O)c3ccc4ccccc4c3)CC2=O)cc1` (centres unmarked) it is 15.6%.
Turning to `COCCN(C(=O)c1ccco1)C(C(=O)NC1CCCC1)c1cccs1` (centres unmarked), the “hERG current change (%, negative = inhibition) at 1uM” value was 6.71%.
Next, `CS(=O)(=O)N1CCCC(C(=O)N2CCc3ccccc3C2)C1` (centres unmarked): 4.12%; `COc1ccc(CNC(=O)Cn2ccc([N+](=O)[O-])n2)cc1OC`: 9.7%.
The figure for `O=C(COC(=O)COc1cccc(Br)c1)Nc1ccc(F)cc1F` is 9.04%; for `NC(=O)c1ccsc1NC(=O)CSc1nnc2ccccn12` it is 9.49%.
Next, `Cc1ccc(/C=C/C(=O)O)cc1S(=O)(=O)NCC1CCCO1` (centres unmarked): 10.8%; `CC(NC(=O)COc1ccccc1)C1COc2ccccc2O1` (centres unmarked): -7.79%.
As to `Cc1nc2ccccc2nc(C)c1=NOCc1ccc(C#N)cc1`, the “hERG current change (%, negative = inhibition) at 1uM” value is 2.25%.
The figure for `C[C@@H]1CC[C@@]2(O[C@H](CCO)C[C@H](O)[C@H]2O)O1` is 22.7%; for `CSc1ccccc1OCc1cc(C(=O)N(C)C2CCCc3ccccc32)no1` (centres unmarked) it is 10.8%.
As to `COC(=O)[C@@H](NC(=O)Nc1ccc(S(N)(=O)=O)cc1)C(C)C`, the “hERG current change (%, negative = inhibition) at 1uM” value is on record as 0.78%.
As to `COC(=O)N(C)CCCC1(C)C(=O)N(C)c2ccc(O)cc21` (centres unmarked), the “hERG current change (%, negative = inhibition) at 1uM” value was -3.35%.
The figure for `N#CC1(NC(=O)COC(=O)c2cc(=O)[nH]c3ccccc23)CCCCC1` is 15.9%; for `CC(C)(C)NC(=O)C1CCN(C(=O)c2ccc(Br)cc2)CC1` it is -0.376%; for `COc1cc(C(=O)Nc2ccc3ccccc3c2)cc(OC)c1OC` it is 10.1%.
Next, `NS(=O)(=O)c1ccc(Nc2ccc3nonc3c2[N+](=O)[O-])cc1`: 10.5%; `COc1ccc(NC(=S)N(Cc2cccnc2)Cc2cc3cc(OC)c(OC)cc3[nH]c2=O)cc1`: 15.4%; `CN(C)CCNC(=O)c1cccc(S(=O)(=O)Nc2ccccc2F)c1`: 14%.
The figure for `CN(C)c1ccc(-c2nnn(CC(=O)Nc3ccccc3N3CCOCC3)n2)cc1` is -4.96%.
`CCn1cc(CN2CCC(n3nccc3NC(=O)c3ccccc3C)CC2)cn1`: the “hERG current change (%, negative = inhibition) at 1uM” value is -14.9%.
Next, `O=C(c1ccc(-n2cnnn2)cc1)N(C1CCCCC1)C1CCCCC1`: 7.09%; `Cn1c(=O)c2c(SCc3cccnc3)nc(CC(C)(C)C)nc2n(C)c1=O`: -12.1%; `COc1cc(CNC2CCCCCCC2)cc(Br)c1OCC#N.Cl`: 5.27%.
Next, `C/C(=N\NC(=O)CNc1ccc(F)cc1)c1cc2ccccc2o1`: 1.01%.
The figure for `Cc1cc(NC(=O)c2ccc([N+](=O)[O-])cc2)n(CCC#N)n1` is 6.73%; for `NS(=O)(=O)c1cccc(NC(=O)COC(=O)Cc2ccc(Cl)cc2)c1` it is 11.5%.
As to `COc1cc2oc(=O)ccc2c(OC)c1CC(O)C(C)(C)O` (centres unmarked), the “hERG current change (%, negative = inhibition) at 1uM” value is given as 7.44%.
The figure for `CCN(CC(=O)Nc1ccc(OC)cc1)C(=O)c1ccc(NS(=O)(=O)c2ccc(C(C)=O)cc2)cc1` is 10.7%; for `Cc1cc(Cl)ccc1OCC(=O)Nn1c(C)ccc1C` it is 6.44%.
For the compound `COc1ccc(NC(=O)CCCCC#Cc2ccccc2)cc1`, the “hERG current change (%, negative = inhibition) at 1uM” value was 11.8%.
The figure for `Cc1nnc(SCc2nnc(-c3ccccc3)o2)n(N)c1=O` is 3.28%; for `CC1O[C@@H](O[C@H](C)CC[C@@H](C)O[C@H]2OC(C)[C@@H](O)C[C@H]2O)C(O)C[C@H]1O` (some centres unmarked) it is 14%.
Next, `COc1cc(C(=O)Nc2ccc(-c3nc4cc(C)ccc4o3)c(O)c2)cc(OC)c1OC`: 12.4%.
For the compound `O=C(C1=C[C@@H](c2coc3ccccc3c2=O)C[C@@H](OCCCCO)O1)N1CCN(Cc2ccccc2)CC1`, the “hERG current change (%, negative = inhibition) at 1uM” value amounted to 0.453%.
With `O=S(=O)(Nc1ccc(Cl)cn1)c1cnc(Cl)c(Br)c1`, the “hERG current change (%, negative = inhibition) at 1uM” value is on record as -0.796%.
Next, `N#C/C(=C\c1ccccc1)C(=O)Nc1nncs1`: 15.8%; `Cc1cccc(N(CC(=O)N/N=C/c2ccc(C(=O)O)cc2)S(=O)(=O)c2ccccc2)c1C`: 13.6%.
The figure for `CC(C)(C)c1ccc2c(c1)N(CC(=O)O)C(=O)CO2` is -14.6%.
